{"source": "the supplement of paper PMC3334620", "note": "Over roughly 33,000 sequences, “E-score (-0.5 to 0.5)” has its median near -0.056; the highest 2% begin near 0.38. The list shows a part of the results.", "data": [{"target": "Stb4 (UniProt P50104)", "test": "PBM E-score (8-mer binding enrichment) (E-score (-0.5 to 0.5)); higher = stronger / more preferred TF binding; most listed sequences are background and not binding sites", "settings": "protein concentration: 200 nM; construct: GST-DNA-binding domain", "method_in_brief": "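The E-score, a modified Wilcoxon-Mann-Whitney statistic, was computed by the Universal PBM Analysis Suite for every ungapped eight-base word pooled with its reverse complement. Scans behind it were normalised with masliner after bound GST-tagged yeast transcription factors were detected with fluorescent anti-GST. The proteins, at about 100-200 nM, had been applied to universal all-10-mer Agilent arrays made double-stranded by primer extension.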", "values": [{"sequence": "ACCATCTG", "PBM E-score": -0.188}, {"sequence": "CCTTCCTA", "PBM E-score": -0.354}, {"sequence": "ACGCACCT", "PBM E-score": -0.166}, {"sequence": "AATATGGA", "PBM E-score": -0.314}, {"sequence": "CACCCCGC", "PBM E-score": 0.167}, {"sequence": "ATACAGCC", "PBM E-score": 0.00135}, {"sequence": "ATTGAGGC", "PBM E-score": 0.0815}, {"sequence": "CATGGTTC", "PBM E-score": 0.0335}, {"sequence": "CTTGTGAC", "PBM E-score": -0.0244}, {"sequence": "CCATACCA", "PBM E-score": -0.062}, {"sequence": "ATGGACCG", "PBM E-score": 0.0897}, {"sequence": "CAGGTTCC", "PBM E-score": 0.0543}, {"sequence": "AGCTCAGA", "PBM E-score": -0.103}, {"sequence": "ACTTGGCC", "PBM E-score": -0.114}, {"sequence": "GGTCTTAC", "PBM E-score": -0.136}, {"sequence": "AACTGGAA", "PBM E-score": -0.0984}, {"sequence": "CGCCTTCA", "PBM E-score": -0.177}, {"sequence": "CCGCTTGC", "PBM E-score": 0.11}, {"sequence": "CATCAATC", "PBM E-score": -0.0724}, {"sequence": "AGTGTGTG", "PBM E-score": -0.228}, {"sequence": "GAGGAACC", "PBM E-score": -0.0303}, {"sequence": "CGGGCAGA", "PBM E-score": 0.244}, {"sequence": "CACTCAAA", "PBM E-score": -0.164}, {"sequence": "GAACAACA", "PBM E-score": 0.0207}, {"sequence": "AGAAGACG", "PBM E-score": 0.00073}, {"sequence": "CTTTCTAC", "PBM E-score": -0.106}, {"sequence": "CAGTGCGG", "PBM E-score": 0.0813}, {"sequence": "CTAAACTC", "PBM E-score": -0.0373}, {"sequence": "TCATTACA", "PBM E-score": -0.165}, {"sequence": "ATTACATA", "PBM E-score": -0.276}, {"sequence": "AGATTACT", "PBM E-score": -0.167}, {"sequence": "GCGGTGTA", "PBM E-score": -0.00948}, {"sequence": "AGATACCT", "PBM E-score": -0.223}, {"sequence": "CTAGAAAG", "PBM E-score": -0.188}, {"sequence": "TGAATGAA", "PBM E-score": -0.00752}, {"sequence": "CGACTTTA", "PBM E-score": -0.00194}, {"sequence": "ATATCAGC", "PBM E-score": -0.0309}, {"sequence": "GGGCAATA", "PBM E-score": 0.0595}, {"sequence": "AACGTGTA", "PBM E-score": -0.15}, {"sequence": "AAAGACGG", "PBM E-score": 0.109}, {"sequence": "CCAATGCA", "PBM E-score": -0.246}, {"sequence": "AGAGAAAC", "PBM E-score": -0.179}, {"sequence": "AGAACCCC", "PBM E-score": 0.0873}, {"sequence": "TAACGTCA", "PBM E-score": -0.165}, {"sequence": "CTGGGGCA", "PBM E-score": -0.3}, {"sequence": "GTAAACGA", "PBM E-score": 0.0686}, {"sequence": "GCGAGAAA", "PBM E-score": -0.00939}, {"sequence": "AACCGGCC", "PBM E-score": 0.218}, {"sequence": "GTGACTGA", "PBM E-score": -0.164}, {"sequence": "AAGGCGCA", "PBM E-score": -0.155}, {"sequence": "CCACCTCG", "PBM E-score": 0.124}, {"sequence": "AAAAGTAA", "PBM E-score": -0.0834}, {"sequence": "ACTGCCTA", "PBM E-score": -0.32}, {"sequence": "ACATCCAG", "PBM E-score": -0.261}, {"sequence": "AGGTGAAT", "PBM E-score": 0.0258}, {"sequence": "CGATAGCC", "PBM E-score": 0.163}, {"sequence": "CCGAAAGG", "PBM E-score": 0.363}, {"sequence": "CACGACGG", "PBM E-score": 0.0117}, {"sequence": "CCTGTTCG", "PBM E-score": 0.0877}, {"sequence": "AACTTCAT", "PBM E-score": -0.124}, {"sequence": "GGGATTCA", "PBM E-score": 0.103}, {"sequence": "TGTATGAA", "PBM E-score": 0.072}, {"sequence": "CTCGTATA", "PBM E-score": -0.107}, {"sequence": "GAGGGGCA", "PBM E-score": 0.00312}, {"sequence": "GGAAGGTA", "PBM E-score": 0.104}, {"sequence": "GAGTAACC", "PBM E-score": 0.134}, {"sequence": "CAATGAGG", "PBM E-score": -0.26}, {"sequence": "AGTGCTAT", "PBM E-score": -0.192}, {"sequence": "CAATAGGC", "PBM E-score": -0.0832}, {"sequence": "CTGTATGC", "PBM E-score": -0.0901}, {"sequence": "GGGGGGAA", "PBM E-score": -0.0796}, {"sequence": "GAAAGATC", "PBM E-score": 0.036}, {"sequence": "ACAAGATA", "PBM E-score": -0.175}, {"sequence": "CGCCAACG", "PBM E-score": -0.0712}, {"sequence": "AGCCCCCG", "PBM E-score": 0.155}, {"sequence": "GGACGGAA", "PBM E-score": 0.328}, {"sequence": "GGTTGCCA", "PBM E-score": 0.0839}, {"sequence": "GCAGCGAC", "PBM E-score": -0.0881}, {"sequence": "ATGACTAC", "PBM E-score": -0.24}, {"sequence": "CTAAGCGA", "PBM E-score": 0.147}, {"sequence": "GCGCAGCA", "PBM E-score": -0.15}, {"sequence": "GCTCCTAC", "PBM E-score": -0.092}, {"sequence": "CCAGTAAG", "PBM E-score": -0.167}, {"sequence": "AGCTAGGC", "PBM E-score": -0.164}, {"sequence": "ACGTCCCA", "PBM E-score": -0.315}, {"sequence": "CATGTCGC", "PBM E-score": -0.071}, {"sequence": "GGTACGGA", "PBM E-score": 0.289}, {"sequence": "AGGGTAGA", "PBM E-score": -0.166}, {"sequence": "ACTGCGAA", "PBM E-score": -0.251}, {"sequence": "ACGCTTTG", "PBM E-score": 0.035}, {"sequence": "GCTATCCC", "PBM E-score": 0.0192}, {"sequence": "AGCGTAAG", "PBM E-score": -0.0254}, {"sequence": "AAGCAAAT", "PBM E-score": -0.2}, {"sequence": "AGGACCAG", "PBM E-score": -0.148}, {"sequence": "ATCACGAG", "PBM E-score": -0.175}, {"sequence": "CAGCCTAG", "PBM E-score": -0.0857}, {"sequence": "ATCGTTGC", "PBM E-score": -0.0155}, {"sequence": "ATTGAACG", "PBM E-score": -0.152}, {"sequence": "CTGGTAAA", "PBM E-score": -0.12}, {"sequence": "ACTGGCGC", "PBM E-score": -0.175}, {"sequence": "CCCTTCTA", "PBM E-score": -0.209}, {"sequence": "CGCGGACG", "PBM E-score": 0.162}, {"sequence": "GGCACAGA", "PBM E-score": 0.121}, {"sequence": "AGCCGCCT", "PBM E-score": 0.0445}, {"sequence": "ACTCTGAT", "PBM E-score": -0.116}, {"sequence": "ACATCACA", "PBM E-score": -0.0991}, {"sequence": "AACTACTA", "PBM E-score": -0.0423}, {"sequence": "GCGTCAGA", "PBM E-score": -0.194}, {"sequence": "GCCGATTA", "PBM E-score": 0.267}, {"sequence": "ATTGCCCC", "PBM E-score": -0.12}, {"sequence": "CCAGGCCC", "PBM E-score": -0.0986}, {"sequence": "CCTACTAC", "PBM E-score": -0.0728}, {"sequence": "TCAATCGA", "PBM E-score": -0.15}, {"sequence": "ATCCCAAA", "PBM E-score": 0.0397}, {"sequence": "AGAAACAG", "PBM E-score": -0.141}, {"sequence": "CAGAGTGG", "PBM E-score": -0.288}, {"sequence": "GATTACCA", "PBM E-score": 0.0702}, {"sequence": "AAAGTAGT", "PBM E-score": -0.179}, {"sequence": "CATTAGGG", "PBM E-score": -0.255}, {"sequence": "AGACGCCT", "PBM E-score": -0.179}, {"sequence": "ACGTAGTG", "PBM E-score": -0.13}, {"sequence": "CTAATATA", "PBM E-score": -0.148}, {"sequence": "AAGACGCC", "PBM E-score": -0.109}, {"sequence": "AGGCCAGG", "PBM E-score": -0.0735}, {"sequence": "ATCAAAAG", "PBM E-score": 0.024}, {"sequence": "TAACTGGA", "PBM E-score": -0.125}, {"sequence": "GCCGTGCA", "PBM E-score": -0.0831}, {"sequence": "GGCCTACC", "PBM E-score": 0.0786}, {"sequence": "ATGAGTAC", "PBM E-score": -0.102}, {"sequence": "CCTAGGTC", "PBM E-score": -0.139}, {"sequence": "CCTCGTAC", "PBM E-score": -0.0299}, {"sequence": "AACTTTTA", "PBM E-score": -0.087}, {"sequence": "CTGTCAAG", "PBM E-score": -0.148}, {"sequence": "CCTCAAAA", "PBM E-score": -0.123}, {"sequence": "GCTTTACC", "PBM E-score": 0.157}, {"sequence": "CTGACAAG", "PBM E-score": -0.194}, {"sequence": "GGAACCCC", "PBM E-score": 0.00388}, {"sequence": "GCCTGAAA", "PBM E-score": 0.0653}, {"sequence": "GCGCACCC", "PBM E-score": 0.167}, {"sequence": "ACACACGG", "PBM E-score": 0.157}, {"sequence": "AACCGACC", "PBM E-score": 0.271}, {"sequence": "GAATAACC", "PBM E-score": 0.053}, {"sequence": "ATGCTGAG", "PBM E-score": -0.229}, {"sequence": "CAACGCAG", "PBM E-score": -0.0853}, {"sequence": "GTAGCCGA", "PBM E-score": 0.4}, {"sequence": "CACCTGCA", "PBM E-score": -0.202}, {"sequence": "ACAGACGC", "PBM E-score": -0.0352}, {"sequence": "ACCCTTTC", "PBM E-score": -0.0625}, {"sequence": "GAACGTGA", "PBM E-score": -0.031}, {"sequence": "GCCTCGTA", "PBM E-score": -0.0917}, {"sequence": "CATGCTAA", "PBM E-score": -0.248}, {"sequence": "GACGCTCC", "PBM E-score": 0.0698}, {"sequence": "GGGCGCCC", "PBM E-score": 0.0969}, {"sequence": "CGTCGGAG", "PBM E-score": 0.275}, {"sequence": "CTAATGCA", "PBM E-score": -0.254}, {"sequence": "ATAAACCG", "PBM E-score": 0.178}, {"sequence": "CACGTCTC", "PBM E-score": 0.145}, {"sequence": "CAGATATC", "PBM E-score": -0.109}, {"sequence": "ACGGTGCC", "PBM E-score": 0.0903}, {"sequence": "ACAAAGTC", "PBM E-score": -0.145}, {"sequence": "AGTGTCAA", "PBM E-score": -0.00351}, {"sequence": "ACTAGACT", "PBM E-score": -0.0653}, {"sequence": "CCCGCACG", "PBM E-score": 0.142}, {"sequence": "ACCTAGGT", "PBM E-score": -0.138}, {"sequence": "AGTGAAAA", "PBM E-score": 0.128}, {"sequence": "CCGCTGAC", "PBM E-score": 0.0389}, {"sequence": "GAATCACC", "PBM E-score": -0.118}, {"sequence": "GTATCGCA", "PBM E-score": -0.0906}, {"sequence": "CGGGACCG", "PBM E-score": 0.353}, {"sequence": "ACTGGTCT", "PBM E-score": 0.116}, {"sequence": "CGCAGTTA", "PBM E-score": 0.0787}, {"sequence": "AATAAGCC", "PBM E-score": 0.00782}]}]}
